# PubChem BioAssay AID686979 (National Center for Advancing Translational Sciences (NCATS), 2013)
# Screen size: about 420,000 compounds; about 50,000 (12%) were called active. The shares of active, inactive and inconclusive entries below differ from those in the screen. Calls follow the shape of the dose curve; as a rule, active = well fitted inhibition curve with a large enough effect; inconclusive = small, poorly fitted or top-dose-only effect; inactive = flat fitted curve, though single readings scatter. Potencies of inconclusive entries are left out as doubtful fits.
# Assay: qHTS for Inhibitors of human tyrosyl-DNA phosphodiesterase 1 (TDP1): qHTS in cells in presence of CPT; also: nearly all actives have a fitted effect of over 55% in size
# Conditions: chicken DT40 Tdp1-/-;hTDP1 cells + 20 nM CPT, ATP luminescence, 48 h; activity change, negative = growth inhibition: at 46.2 µM (top of the series) unless noted
# Procedure, shortened: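 Chicken DT40 Tdp1-/- cells complemented with human TDP1, 400 cells/well, exposed to compounds plus 20 nM camptothecin for at least 48 h at 37 C; viability read as ATP content by CellTiter-Glo luminescence.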
# % is scaled to controls: 0 for no effect and ±100 for the full control effect; potency is read from the fitted curve at half-maximal effect; tags tell the direction and shape of the fitted curve.
Compound,Potency,"activity change, negative = growth inhibition"
CCOc1ccc(NC(=O)CSc2ncn[nH]2)cc1,inactive,–
CC1CC(C)CN(S(=O)(=O)c2ccc(Cl)cc2)C1 (stereo not given),–,inconclusive: -30.2% [inhibitor]
CCOc1ccc(C(=O)N(CN2CCCC2=O)c2ccc(C)cc2)cc1,active: 8.2 µM,–
CCOC(=O)Cn1nnc(-c2ccc(OCC(C)C)cc2)n1,inactive,–
Nc1cccc2cccnc12,active: 1.78 µM,–
Cc1ccc(Cc2nc3ccccc3n2C(CCc2ccccc2)c2nc3ccccc3[nH]2)cc1 (stereo not given),"inconclusive [inhibitor, single point]",–
O=c1cc(-c2ccccc2)nc2cc(-c3ccco3)[nH]n12,"inconclusive [inhibitor, partial curve, poor fit]",–
COc1ccc(S(=O)(=O)N2CCC3(CC2)OCCN3S(=O)(=O)c2cccs2)cc1OC,–,inconclusive: -32.1% [inhibitor]
CC(=O)OCC(=O)[C@@]1(O)CC[C@H]2[C@@H]3CCC4=CC(=O)CC[C@]4(C)[C@H]3[C@@H](O)C[C@@]21C,"inconclusive [inhibitor, single point]",–
COc1cccc(NC(=O)C2C3CC4OC(=O)C2C4C3)c1 (stereo not given),inactive,–
CCOc1ccc(CN(C)CC(=O)Nc2cccc(C)c2)cc1OC,active: 20.6 µM,–
CN(C)c1ccc(/C=N/NC(=O)c2nonc2N)cc1[N+](=O)[O-],"inconclusive [inhibitor, single point]",–
Cc1noc(C)c1CSCC(=O)N(C)CC(=O)Nc1ccc(Cl)cc1,"inconclusive [inhibitor, single point]",–
O=S(=O)(c1ccc2ccccc2c1)N1CCN(CCO)CC1,inactive,–
O=C(OCC(=O)N(C1CCCCC1)C1CCCCC1)c1ccco1,"inconclusive [inhibitor, full curve, poor fit]",–
COc1cccc(C(=O)OCc2cc(=O)oc3c(C)c(C)ccc23)c1OC,"inconclusive [inhibitor, single point]",–
Cn1cc(-c2coc3c(C(=O)NCc4ccco4)cccc23)cn1,"inconclusive [inhibitor, single point]",–
Oc1ccc2ccccc2c1CN1CCN(c2ccccc2F)CC1,inactive,–
COC(=O)c1sccc1NC(=O)c1cc(OC)cc(OC)c1,"inconclusive [inhibitor, full curve]",–
Cc1ccc(NS(=O)(=O)c2ccc(C)c(C(=O)Nc3ccc(S(=O)(=O)Nc4onc(C)c4C)cc3)c2)cc1,inactive,–
CCSc1nnc(NC(=O)C2CC(=O)N(Cc3ccc(C)cc3)C2)s1 (stereo not given),inactive,–
Cc1ccccc1NC(=O)CN1CCN(C)CC1,inactive,–
Cn1c(=O)c(-c2ccccc2)nn2c3ccccc3nc12,"inconclusive [inhibitor, single point]",–
Cc1cccc(NC(=O)CSc2nnc(Cn3nnc(-c4ccccc4)n3)n2-c2ccccc2)c1,"inconclusive [inhibitor, full curve, poor fit]",–

Compound,Potency,"activity change, negative = growth inhibition"
Cc1cccc(-n2[nH]c3c4c(ccc3c2=O)C(=O)c2ccccc2C4=O)c1,active: 20.6 µM,–
O=C(Nc1ccccc1-c1ccccc1)C1CCCC1,active: 6.51 µM,–
COc1ccc(N2CCCC2)c(NC(=O)c2ccc(Br)o2)c1,"inconclusive [inhibitor, single point]",–
CCn1ccnc1CN(C)Cc1cn(-c2ccccc2)nc1-c1ccc(OC)cc1F,"inconclusive [inhibitor, single point]",–
NS(=O)(=O)c1ccc(NC(=S)Nc2ccc(OCc3ccccc3)cc2)cc1,"inconclusive [inhibitor, single point]",–
C=CCn1c(=O)c2ccc(C(=O)NCc3ccccc3)cc2n(Cc2ccc(C)cc2)c1=O,"inconclusive [inhibitor, single point]",–
O=C(COc1ccccc1)N1CCN(C(=O)c2cccc(F)c2)CC1,inactive,–
CC(C)(C)c1ccccc1OCCCCCn1ccnc1,"inconclusive [inhibitor, single point]",–
Cc1ccc(C)c(NCC(=O)c2ccc(Cl)cc2)c1,"inconclusive [inhibitor, single point]",–
O=C(c1ccccc1)c1cccn1CC(=O)N1CCN(c2ccc(F)cc2)CC1,–,inconclusive: -35.3% [inhibitor]
Clc1ccc(-n2nnc(-c3ncc[nH]3)n2)cc1Cl,inactive,–
CCCNC(=O)NC(=O)COc1ccc2oc3ccccc3c2c1,"inconclusive [inhibitor, partial curve, poor fit]",–
O=C1C2CCCCN2C(=O)N1CCCCN1CCN(c2cccc(Cl)c2)CC1 (stereo not given),inactive,–
CCN1CCC(Nc2ccnc3cc(Cl)ccc23)CC1,inactive,–
N/C(=N\c1nc2ccccc2o1)NC(=O)c1ccc(F)cc1,active: 13 µM,–
COCCNC(=O)C(c1ccc(C)cc1)N(C(=O)C(=O)NC1CCCC1)c1ccc2c(c1)OCCO2 (stereo not given),inactive,–
CCCCN(C(=O)CCC(=O)Nc1cc(C)on1)C(C(=O)NC(C)(C)C)c1ccccc1Cl (stereo not given),"inconclusive [inhibitor, single point]",–
COc1ccc([N+](=O)[O-])cc1COc1ccc2c(-c3ccccc3)cc(=O)oc2c1,"inconclusive [inhibitor, partial curve]",–
COc1cccc(CNC(=O)C2CCN(c3cnccn3)CC2)c1,inactive,–
COc1cc(OC)c(N(C)C(=O)c2cn(C)c(=O)c3cc(OC)c(OC)cc23)cc1Cl,"inconclusive [inhibitor, single point]",–
CN(C)c1ccc(-c2cccc(C3CC=CC4C3C(=O)N(Cc3ccccc3)C4c3ccc(C(F)(F)F)cc3)c2)cc1 (stereo not given),active: 11.6 µM,–
CCOC(=O)c1c(NC(=O)CN2C(=O)NC3(CCCCC3C)C2=O)sc(C)c1CC (stereo not given),"inconclusive [inhibitor, single point]",–
CC1CCc2c(sc(NC(=O)c3ccc(Cn4cc([N+](=O)[O-])cn4)o3)c2C#N)C1 (stereo not given),inactive,–
Cc1ccsc1S(=O)(=O)N1CCCC(CCC(=O)NCc2ccccc2F)C1 (stereo not given),"inconclusive [inhibitor, single point]",–

Compound,Potency,"activity change, negative = growth inhibition"
Cc1cccc2sc(N(CCCN(C)C)C(=O)c3ccc(S(=O)(=O)N4CCc5ccccc5C4)cc3)nc12,active: 4.11 µM,–
CC(C)c1c(C(=O)Nc2ccccc2)c(-c2ccccc2)c(-c2ccc(F)cc2)n1CC[C@@H](O)C[C@@H](O)CC(=O)O,"inconclusive [inhibitor, partial curve, poor fit]",–
CCN(CC)C(=O)Cn1cc(C(=O)C(=O)N2CCCc3ccccc32)c2ccccc21,"inconclusive [inhibitor, single point]",–
CC(=O)Nc1ccccc1NC(=O)C/C(C)=N/NC(=O)Cc1cccc2ccccc12,–,inconclusive: -35.5% [inhibitor]
CN(c1ccccc1)S(=O)(=O)c1ccc(C(=O)NCc2cccnc2)cc1,"inconclusive [inhibitor, full curve, poor fit]",–
Cc1cc(C)n(-c2nc3ccccc3nc2N2CCCCCC2)n1,"inconclusive [inhibitor, single point]",–
CCOC(=O)C1=NOC2(C1)C(=O)Nc1c(Cl)cccc12 (stereo not given),inactive,–
O=C(NCCc1ccc(Cl)cc1)C(=O)NCC(c1ccc2c(c1)OCO2)N1CCOCC1 (stereo not given),inactive,–
Cc1c(C(=O)N2CCN(c3ccccn3)CC2)oc2c1C(=O)CC(C)(C)C2,"inconclusive [inhibitor, single point]",–
O=C1N[C@@H](Cc2c[nH]c3ccccc23)COC(=O)[C@@H](Cc2ccc(F)cc2)CC/C=C/C[C@@H]1CC(=O)N(CCO)Cc1ccccc1,"inconclusive [inhibitor, single point]",–
COC(=O)c1ccc(N2CCC(C)CC2)c(N)c1,"inconclusive [inhibitor, single point]",–
Cn1cccc1C(=O)N1CCC[C@@]2(CCN(c3ccncc3)C2)C1,inactive,–
Cc1cccnc1CNC(=O)C1(C)CCCN1CC(C)C (stereo not given),active: 14.6 µM,–
O=C(Cn1c(C(F)(F)F)nc2ccccc21)N=Nc1c(O)[nH]c2ccc(Br)cc12,"inconclusive [inhibitor, single point]",–
CCOc1cccc(CN2CCCC(C(=O)c3cc(Cl)ccc3OC)C2)c1O (stereo not given),"inconclusive [inhibitor, single point]",–
Cc1ccc(NC(=O)c2cc3c(s2)CCCC3)cc1,"inconclusive [inhibitor, partial curve]",–
O=C(Cc1ccc(F)cc1)Nc1ccc(F)c([N+](=O)[O-])c1,"inconclusive [inhibitor, single point]",–
COc1ccc(S(=O)(=O)Nc2ccccc2C(=O)Nc2nc(-c3ccc(F)cc3)cs2)cc1OC,"inconclusive [inhibitor, single point]",–
CC(=O)Nc1ccc(OS(=O)(=O)c2c(C)cc(C)cc2C)cc1,"inconclusive [inhibitor, single point]",–
CN(C)c1ccc(-c2csc(C(O)c3ccc(F)cc3)n2)cc1 (stereo not given),"inconclusive [inhibitor, single point]",–
CC(=O)Nc1ccc(OCCOc2ccc([N+](=O)[O-])cc2)cc1,"inconclusive [inhibitor, partial curve]",–
Cn1c(=O)c2cc(C(=O)N3CCN(c4cccc(C(F)(F)F)c4)CC3)sc2c2ccccc21,"inconclusive [inhibitor, single point]",–
